Measured values taken from PMC9179882 (Cancers, 2022).

Legend:
[1] = tested on: CMYC G4; assay: Circular dichroism spectra, CMYC G4; assay type: binding; conditions: 100 µM GA, 10 µM CMYC G4, 25 °C
Experimental: (§1) G4-oligonucleotides listed in Supplementary Table S3 were purchased from Integrated DNA Technologies (Clareville, IA, USA). All of them were dissolved in G4s buffer (10 mM potassium phosphate, 100 mM potassium chloride at pH 7.0), heated at 95 °C for 10 min, slowly cooled to RT, and stored at 4 °C.
(§2) CD spectra were recorded at 25 °C on a JASCO 715 CD spectropolarimeter in G4s buffer conditions (10 mM potassium phosphate buffer containing 100 mM potassium chloride at pH 7.0). The concentration of the prefolded G4 DNA was 10 μM, and GA was added at 100 μM and incubated overnight to register the new spectrum. The used wavelength range was 230–700 nm with 100 nm/min as scan speed. The cuvette path length was 0.1 cm, and three accumulation spectra were averaged for each measurement. The G4-oligonucleotides used in the current study are listed in Supplementary Table S3.

[2] = tested on: 5′ETS G4; assay: Circular dichroism spectra, 5′ETS G4; assay type: binding; conditions: 100 µM GA, 10 µM 5′ETS G4, 25 °C
Experimental: as §1, §2

O=C(O)c1cc(O)c(O)c(O)c1 [Gallic acid, 3,4,5-trihydroxybenzoic acid]
change of CD spectrum [1]: intensity of the positive CD band of both 5′ETS and CMYC G4s decreased | change of CD spectrum [2]: intensity of the positive CD band of both 5′ETS and CMYC G4s decreased
